Measured values from paper PMC10726135.
The other results are listed elsewhere or left out. At the low end of the ranking, values are background and their order means little. Measured with an extract: partners may take part in the binding.

These sequences were tested against T1, HNF4alpha2 (COS-7 nuclear extract) (UniProt P41235) (assay: protein-binding microarray). Conditions: COS-7 nuclear extract on double-stranded Agilent 4x180k PBM; binding buffer, salt, pH and temperature not given; high values mean tight binding; double strand, one strand shown; sequences stand for … in …GCCTAGGGAGATTAGAGTATCGGTCGA.
T1 sequence: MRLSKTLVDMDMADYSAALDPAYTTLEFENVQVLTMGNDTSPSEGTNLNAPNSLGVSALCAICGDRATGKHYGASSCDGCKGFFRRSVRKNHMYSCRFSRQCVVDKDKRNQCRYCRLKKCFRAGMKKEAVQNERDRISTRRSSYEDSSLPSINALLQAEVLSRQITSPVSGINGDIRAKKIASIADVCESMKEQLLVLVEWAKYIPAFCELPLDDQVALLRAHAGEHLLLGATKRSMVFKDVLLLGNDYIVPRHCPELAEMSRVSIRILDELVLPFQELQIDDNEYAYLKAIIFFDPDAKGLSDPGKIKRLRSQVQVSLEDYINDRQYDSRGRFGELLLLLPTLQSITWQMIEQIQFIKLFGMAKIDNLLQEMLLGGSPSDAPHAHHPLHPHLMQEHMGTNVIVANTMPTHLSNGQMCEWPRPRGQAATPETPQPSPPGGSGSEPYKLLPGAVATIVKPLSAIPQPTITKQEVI

| Sequence | binding signal (log2 normalized intensity) |
| --- | --- |
| CTCTGCCCCTCATCGAGGCCATCCCAGTTA | 3.46 |
| TGACATTGGTGGAATCTGAACTTTTGGCTC | 2.03 |
| GCCAGGACAAAGGTCCTGTGGCCTGGGGAG | 0.557 |
| AGGGACTCAGGCACACAAAAAAAACCACTC | -1.21 |
| TTGTAAAGGGTAATCTGCTTTTCTCGAAGC | -1.02 |
| CTGACCCCAAGTAATAGCCGTTTCTGTCCA | 1.4 |
| CCACGGAGCACATTCCATGCCCGGGTTGCT | -1.07 |
| GAAATCATCTCCATGCCGACTCCGAACTAT | -1.06 |
| CTATGTTTAATGTATAAACCCTGAGGGTCA | 2.26 |
| ATGGCTAGAAAGTCAGTGAAGGAGCTGACT | -0.475 |
| GCCAAGCTCTGGGCTAGTCCCTGAGTATTA | -0.902 |
| GGGTTAGGCCTGGAACCTGTCTGACAGGAT | -0.206 |
| CTTGTCACTTTCCCTTTGTCTCCAGGCCCT | 0.67 |
| TTTGCTTTTCCCTGCTGCTGGCTGGCGGCC | -0.985 |
| TTTGGGTAATAACATGTAATTGCATGACCA | 1.72 |
| AGCCTTTCCTCAGATGGAATGTGTGCCCGT | 1.76 |
| CGTCACCTTTATCGAACCTATTGTTTAATC | 1.76 |
| TTAGGATAGGGTCAGTCTTTGTTCTAGTAA | 1.55 |
| CAGACAGCAGTCTGAGTAGGAAAGACTTGC | -1.11 |
| TGCATGTGTTCACACCACACTCTCCTCCTG | -0.622 |
| CCCTCTGAGTGTTTGACCTTTCACCCAGAA | 6.42 |
| GGCGGGTTCTGCCATCTCGCAGAAAGTGGC | -0.149 |
| CTAGCATTAGGACCTGTTTGTCTTGCTGGG | 0.512 |
| ATAGACTGTCCCTCAGTGTGGGACTTTGGT | 2.72 |
| TGACTTTATCATTGGACTCTCTCATTCTGA | 2 |

| Sequence | binding signal (log2 normalized intensity) |
| --- | --- |
| GCAGAAGGTGTTTCAGATGGACCAAAGGTC | 5.41 |
| CCTGGGTGCTCCCTCCCCCTGCATGAACCT | 4.07 |
| GTTAGGGCCATTTGGTCTGTAGTGTTGCTC | 1.51 |
| AGAACACAGTCATTTATTCACTTATTTGTT | 0.626 |
| GGAGTTGTCTGTCCAGTTCAGGAGTTATCA | 1.19 |
| TAAGCACCCAGATAAGTTATCCTTGTTCTA | -0.046 |
| GCTGGGATAACCGAGGCTGACAGCAGAGAG | -1.08 |
| GTCCAGTTGAATGATGGCGAGTGTGCAATT | 0.58 |
| AAGTTCATGGAAAGTTTCACTTTCTCTTAT | -1.16 |
| TTCCAGCAAAGAGATTAGGACACAGCAGAG | -1.09 |
| TTTCCCTGGGGTCAATAGTTGTGTAAATAG | 2.07 |
| TCGAACAGTTGGCCACCTTTGGCCGAAACT | 2.15 |
| GTCCTCCTGTGGCCACAGAGCGCCTAACTA | -1.13 |
| TCGAAGGCCAAGGGATTTCAGTGCCCTCAT | 1.14 |
| ACACCAAGCAAGCTCTGCAATAGAGCCACA | -1.18 |
| AATACAGCACTCAAATGATCAAAGAAGCCC | -1.16 |
| TTTGATCAGCTGGTCCTTCAAGTGTGACCC | 3.95 |
| GGCTGTCTCAGTGGGTGGGAAAGGGTGCTC | 0.926 |
| ATCCCTCGTAGGCAGGGCCAGATAAAGCAG | -1.13 |
| ACAGCACTTAGGGTTCAAAGGTTGTTGAGC | 6.05 |
| TTAGGTGGACAGGGGTGTGTTGACCGATAA | 1.59 |
| ATAGCTGAAATTTGTATCTTGGGTTAGGCC | 1.24 |
| GTCTCAAAAAAAAAAAAAAGGCAGTCCTTA | -1.07 |
| GCATCTTCAACTGTGTGAGCTGATCACACC | 0.214 |
| TTAGTGGAGTATAGGAACATGAACTGAGCA | 0.379 |

| Sequence | binding signal (log2 normalized intensity) |
| --- | --- |
| CTGCTCAGGGTGGGGTCTCGCTGCTTCGGC | -1.09 |
| CTCTGGCCCTTAAAGGCTTTTGCAAGAAAA | -1.04 |
| AACTTTCTTTTTGTTGTTAGAACAAAGTCC | 4.02 |
| GGCAGCCAGCTGGTTTGCCTCTCTTAGGTG | -1.14 |
| ACACATGATAAGATTTATCTCTCCAAGGTA | -1.19 |
| CAGAAGGCGCTGAACTTTGCCTTGTACACA | 3.65 |
| AGCAGCTAGCAAATACAAGGACACTGAAAG | -1.29 |
| AATCCTCAGCCTTCTCCGCGGCGGGCCCTC | -1.18 |
| TATATTGGATAGTGCCTTTTCTAATATCTA | 0.877 |
| TAGGAGACTGTCTTAGGAAAGAACAGGTCA | 1.14 |
| TAACGACCTTTGGGCTAAAAAGGAAGCTGT | 1.84 |
| TGGAGAAAGCAGCCAACCAGAGGCTGAAGT | -1.07 |
| ATAAAGAACGCTCACAGAAAGAAGAGACAG | -1.05 |
| GTCTCTCTCTCATGCTATGCTCTCTCTCCA | 0.812 |
| CCTTTCCCTTCTTCTCCTCCCAACAGGTAT | 2.48 |
| TGCTCCTGCTTGCTGGCTTTCCCACCCATG | 1.34 |
| CAGCATGGTATGTGGCTTGCCGCATTCCCA | -1.1 |
| TCTACTTGGTGGGAGGAGGGGGGAGGGTCG | -1.26 |
| TTTCTCTGCACACACTCACAGAACACAGTG | -1.12 |
| AGAACTGGTCCGCCTTCATTCCTAGCCCCA | 2.37 |
| ATTTGACCCTTGGCCAGGTGCAGTGGCTCA | 2.99 |
| TCTGGTAAACAGCTGACAATAAATTCCAGG | -1.16 |
| AATGTCTGCTGTTGCACCTCTTATCAAGCG | -1.09 |
